Where a chain is given by its changes, count along the chain named. Numbers in names are those of the source. ± gives the standard deviation of the averaged measurements. Laboratory Escherichia coli strains with one amino-acid change in an essential protein, pooled on minimal glucose agar with carbenicillin or gentamicin at twice the control MIC (plus kanamycin and chloramphenicol for the plasmids), 48 h. Fold change of barcode share against drug-free plates; higher = less susceptible. Active = above 20 in both replicates (the paper's putatively resistant). '<' = one read or none on drug, '>' = one read or none on a drug-free plate. Shares are relative, so most strains fall below 1 when a few take over. Listed are strains with at least 15 reads on both drug-free plates, and hits; most hits rest on fewer reference reads. Replicate rank correlation about 0.5. Edits are read from barcodes.
B1: mukB L686Q (protein)
chain: MIERGKFRSLTLINWNGFFARTFDLDELVTTLSGGNGAGKSTTMAAFVTALIPDLTLLHFRNTTEAGATSGSRDKGLHGKLKAGVCYSMLDTINSRHQRVVVGVRLQQVAGRDRKVDIKPFAIQGLPMSVQPTQLVTETLNERQARVLPLNELKDKLEAMEGVQFKQFNSITDYHSLMFDLGIIARRLRSASDRSKFYRLIEASLYGGISSAITRSLRDYLLPENSGVRKAFQDMEAALRENRMTLEAIRVTQSDRDLFKHLISEATNYVAADYMRHANERRVHLDKALEFRRELHTSRQQLAAEQYKHVDMARELAEHNGAEGDLEADYQAASDHLNLVQTALRQQEKIERYEADLDELQIRLEEQNEVVAEAIERQQENEARAEAAELEVDELKSQLADYQQALDVQQTRAIQYNQAIAALNRAKELCHLPDLTADCAAEWLETFQAKELEATEKMLSLEQKMSMAQTAHSQFEQAYQLVVAINGPLARNEAWDVARELLREGVDQRHLAEQVQPLRMRLSELEQRLREQQEAERLLADFCKRQGKNFDIDELEALHQELEARIASLSDSVSNAREERMALRQEQEQLQSRIQSLMQRAPVWLAAQNSLNQLSEQCGEEFTSSQDVTEYLQQLLEREREAIVERDEVGARKNAVDEEIERLSQPGGSEDQRLNALAERFGGVLQSEIYDDVSLEDAPYFSALYGPSRHAIVVPDLSQVTEHLEGLTDCPEDLYLIEGDPQSFDDSVFSVDELEKAVVVKIADRQWRYSRFPEVPLFGRAARESRIESLHAEREVLSERFATLSFDVQKTQRLHQAFSRFIGSHLAVAFESDPEAEIRQLNSRRVELERALSNHENDNQQQRIQFEQAKEGVTALNRILPRLNLLADDSLADRVDEIRERLDEAQEAARFVQQFGNQLAKLEPIVSVLQSDPEQFEQLKEDYAYSQQMQRDARQQAFALTEVVQRRAHFSYSDSAEMLSGNSDLNEKLRERLEQAEAERTRAREALRGHAAQLSQYNQVLASLKSSYDTKKELLNDLQRELQDIGVRADSGAEERARIRRDELHAQLSNNRSRRNQLEKALTFCEAEMDNLTRKLRKLERDYFEMREQVVTAKAGWCAVMRMVKDNGVERRLHRRELAYLSADDLRSMSDKALGALRLAVADNEHLRDVLRMSEDPKRPERKIQFFVAVYQHLRERIRQDIIRTDDPVEAIEQMEIELSRLTEELTSREQKLAISSRSVANIIRKTIQREQNRIRMLNQGLQNVSFGQVNSVRLNVNVRETHAMLLDVLSEQHEQHQDLFNSNRLTFSEALAKLYQRLNPQIDMGQRTPQTIGEELLDYRNYLEMEVEVNRGSDGWLRAESGALSTGEAIGTGMSILVMVVQSWEDESRRLRGKDISPCRLLFLDEAARLDARSIATLFELCERLQMQLIIAAPENISPEKGTTYKLVRKVFQNTEHVHVVGLRGFAPQLPETLPGTDEAPSQAS
B2: mukB V713A (protein)
chain: B1 chain with Q686L, V713A
B3: msbA V29P (protein)
chain: MHNDKDLSTWQTFRRLWPTIAPFKAGLIPAGVALILNAASDTFMLSLLKPLLDDGFGKTDRSVLVWMPLVVIGLMILRGITSYVSSYCISWVSGKVVMTMRRRLFGHMMGMPVSFFDKQSTGTLLSRITYDSEQVASSSSGALITVVREGASIIGLFIMMFYYSWQLSIILIVLAPIVSIAIRVVSKRFRNISKNMQNTMGQVTTSAEQMLKGHKEVLIFGGQEVETKRFDKVSNRMRLQGMKMVSASSISDPIIQLIASLALAFVLYAASFPSVMDSLTAGTITVVFSSMIALMRPLKSLTNVNAQFQRGMAACQTLFTILDSEQEKDEGKRVIERATGDVEFRNVTFTYPGRDVPALRNINLKIPAGKTVALVGRSGSGKSTIASLITRFYDIDEGEILMDGHDLREYTLASLRNQVALVSQNVHLFNDTVANNIAYARTEQYSREQIEEAARMAYAMDFINKMDNGLDTVIGENGVLLSGGQRQRIAIARALLRDSPILILDEATSALDTESERAIQAALDELQKNRTSLVIAHRLSTIEKADEIVVVEDGVIVERGTHNDLLEHRGVYAQLHKMQFGQ
B4: msbA V550P (protein)
chain: B3 chain with P29V, V550P
B5: msbA V550A (protein)
chain: B3 chain with P29V, V550A
B6: msbA V550Q (protein)
chain: B3 chain with P29V, V550Q
B7: msbA I535A (protein)
chain: B3 chain with P29V, I535A
B8: msbA V550D (protein)
chain: B3 chain with P29V, V550D

Each protein was assayed against Escherichia coli (laboratory strain) (assay: barcode share on antibiotic plates over drug-free plates; higher = less susceptible). Details: antibiotic: carbenicillin; 2× MIC (3.1 µg/mL).
Method: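 A pool of E. coli strains, each edited to carry one amino-acid change in an essential protein, was grown for 48 h on minimal glucose agar with or without antibiotic; strain barcodes were sequenced; mean of two replicates.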

Protein	fold change of barcode share
B1	0.379 ± 0.073
B2	0.308 ± 0.18
B3	0.515 ± 0.032
B4	1.1 ± 0.62
B5	0.391 ± 0.32
B6	0.371 ± 0.26
B7	0.373 ± 0.19
B8	0.3057 ± 0.0027

Same assay, conditions: antibiotic: gentamicin; 2× MIC (MIC 0.45 µg/mL)

Protein	fold change of barcode share
B1	0.0269 ± 0.024
B2	< 0.0047
B5	0.0109 ± 0.01
B6	< 0.0119
B7	< 0.00806
B8	< 0.0127

— the supplement of paper PMC11876631
